From PubChem BioAssay AID686978 (National Center for Advancing Translational Sciences (NCATS), 2013)
Screen size: about 420,000 compounds; about 64,000 (15%) were called active. The shares of active, inactive and inconclusive entries below differ from those in the screen. Calls follow the shape of the dose curve; as a rule, active = well fitted inhibition curve with a large enough effect; inconclusive = small, poorly fitted or top-dose-only effect; inactive = flat fitted curve, though single readings scatter. Potencies of inconclusive entries are left out as doubtful fits.

assay: qHTS for Inhibitors of human tyrosyl-DNA phosphodiesterase 1 (TDP1): qHTS in cells in absence of CPT; details: DT40 Tdp1-/- hTDP1 cells, no CPT, ATP luminescence, 48 h; activity change, negative = growth inhibition: at 46.2 µM (top of the series) unless noted; also: nearly all actives have a fitted effect of over 55% in size
Method in brief: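 Growth of hTDP1-complemented DT40 Tdp1-knockout cells is measured by ATP luminescence after at least 48 hr compound exposure at 37 °C, with DMSO substituting for the 20 nM CPT used in the parallel screen.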
% is scaled to controls: 0 for no effect and ±100 for the full control effect; potency is read from the fitted curve at half-maximal effect; tags tell the direction and shape of the fitted curve.

| Compound | Potency | activity change, negative = growth inhibition |
| --- | --- | --- |
| COCC1CCCN(Cc2ccc3c(c2)CN(C(=O)c2cc(-c4ccccc4)n[nH]2)CCO3)C1 (stereo not drawn) | inconclusive [inhibitor, single point] | – |
| CN(CC(=O)Nc1cccc(F)c1)C(=O)/C=C/c1ccc2ccccc2n1 | inactive | – |
| Cc1cc(C)c(NC(=O)CSc2nc(=O)n(Cc3ccco3)c3c2CCC3)c(C)c1 | inconclusive [inhibitor, single point] | – |
| O=C(Nc1cccc(-c2nc3ccccc3s2)c1)c1ccc2c(c1)OCO2 | inconclusive [inhibitor, partial curve] | – |
| O=C(NCC(c1ccco1)N1CCN(c2ccc(F)cc2)CC1)C(=O)NC1CC1 (stereo not drawn) | inconclusive [inhibitor, single point] | – |
| O=C(NCCC1CCCCN1S(=O)(=O)c1cccs1)C(=O)Nc1ccc(F)cc1F (stereo not drawn) | active: 2.59 µM | – |
| COc1cccc(-c2nc(SCc3cc(=O)c4cc(Cl)ccc4[nH]3)n[nH]2)c1 | inactive | – |
| CC(=O)c1ccc(N2CCN(S(=O)(=O)c3cccc(S(=O)(=O)N4CCOCC4)c3)CC2)cc1 | inconclusive [inhibitor, single point] | – |
| COc1ccc(N2C(=O)CC(N3CCC(O)(c4ccc(Cl)cc4)CC3)C2=O)cc1 (stereo not drawn) | inconclusive [inhibitor, single point] | – |
| O=C(O)Cc1sc(-c2ccccc2)nc1-c1ccccc1 | inactive | – |
| CC1(C)NC(=O)N(CCCCOc2ccc3c(c2)CCC3)C1=O | – | inconclusive: -31.6% [inhibitor] |
| COc1ccc2c(Sc3ccccc3)c(C(=O)NCCN(C)C)[nH]c2c1 | inconclusive [inhibitor, single point] | – |
| CCOC(=O)c1c(C)oc2c1c(C=NCCO)c(O)c1ccccc12 | inconclusive [inhibitor, single point] | – |
| CC(=O)Nc1cccc(-c2cc(-c3c(Cl)cccc3Cl)no2)c1 | inconclusive [inhibitor, partial curve, poor fit] | – |
| CCOC(=O)c1cn2nc(Oc3ccc(OC)cc3)ccc2n1 | active: 6.51 µM | – |
| CCN1CCN(CCCNC(=O)CNC(=O)c2nn(-c3ccc(OC)cc3)c(=O)c3ccccc23)CC1 | inactive | – |
| COc1cccc(-n2nnnc2SCC(=O)N2CCCc3ccccc32)c1 | inconclusive [inhibitor, partial curve, poor fit] | – |
| COc1ccc2[nH]c3c(c2c1)CCN1C(=O)C(CC(=O)NCC24CC5CC(CC(C5)C2)C4)C[C@H](C(=O)N2CCOCC2)[C@@]31CCC1CCCC1 (stereo partly drawn) | inconclusive [inhibitor, single point] | – |
| CCOc1ccc(-c2nonc2NC(=O)c2ccccc2C)cc1 | inconclusive [inhibitor, full curve, poor fit] | – |
| Cc1cc2c(cc1S(=O)(=O)Nc1cccc(C(F)(F)F)c1)OCCN2C | inconclusive [inhibitor, partial curve, poor fit] | – |
| CCOC(=O)C1=C(C)N(CC(C)C)C(=O)/C1=C\c1cccs1 | inconclusive [inhibitor, single point] | – |
| O=C(NS(=O)(=O)Nc1ccccn1)c1c[nH]c2ccccc12 | inactive | – |
| CCN(CC(=O)Nc1ccccc1C(F)(F)F)CC(=O)NC1CC1 | inconclusive [inhibitor, single point] | – |

| Compound | Potency | activity change, negative = growth inhibition |
| --- | --- | --- |
| COc1ccc(S(=O)(=O)N2CCOCC2)cc1NC(=O)C1CCCN1C(=O)c1cccs1 (stereo not drawn) | inconclusive [inhibitor, partial curve, poor fit] | – |
| CCc1ccc(CN(Cc2ccco2)C(=O)c2cc(-c3ccc(Cl)cc3)on2)cc1 | active: 14.6 µM | – |
| CO/N=C(\CCC(=O)O)c1cccs1 | inconclusive [inhibitor, single point] | – |
| C=CCNc1ncnc2c1ncn2[C@H]1CN(CCOC)C[C@@H](CO)O1 | inactive | – |
| COC(=O)c1cccc(S(=O)(=O)N(Cc2ccco2)Cc2cc3ccc(OC)cc3[nH]c2=O)c1 | inactive | – |
| Cc1ccc(OCC(O)CN2CC3(C)CC2CC(C)(C)C3)cc1 (stereo not drawn) | inconclusive [inhibitor, full curve, poor fit] | – |
| CCOC(=O)Cn1nc2oc(=O)c(CCN3CCN(c4ccccc4OC)CC3)c(C)c2c1C | inactive | – |
| O=C(NCC1CCCN1S(=O)(=O)c1cccs1)c1ccc([N+](=O)[O-])cc1 (stereo not drawn) | inconclusive [inhibitor, single point] | – |
| CC(C)(C)C1CCc2c(sc(NC(=O)c3ccccc3F)c2C(=O)N2CCCCC2)C1 (stereo not drawn) | inconclusive [inhibitor, single point] | – |
| COc1ccc(NC2=C(C)C(=O)CC2)cc1 | inconclusive [inhibitor, single point] | – |
| CCOc1cccc2sc(N(CCCN(C)C)C(=O)c3ccc(S(=O)(=O)N4CCc5ccccc5C4)cc3)nc12 | inconclusive [inhibitor, single point] | – |
| CCOC(=O)c1oc2c(O)c(O)ccc2c(=O)c1-c1nncn1-c1ccccc1 | inactive | – |
| O=C(c1cc2cc(F)ccc2[nH]1)N1CCc2ccccc2C1 | inconclusive [inhibitor, single point] | – |
| c1ccc(CC2CCN(c3nc4ccccc4n4nnnc34)CC2)cc1 | inconclusive [inhibitor, partial curve, poor fit] | – |
| Fc1ccccc1N1CCN(CC2CC3C=CC2C3)CC1 (stereo not drawn) | inconclusive [inhibitor, partial curve] | – |
| CCN(CC)C(=O)c1sc2c(c1C)c(=O)n(-c1ccc(C)c(C)c1)c(=O)n2CC(=O)Nc1ccc(F)cc1 | – | inconclusive: -33.7% [inhibitor] |
| O=C(Cc1ccc(Cl)cc1)Nc1ccc2oc(-c3ccccc3)nc2c1 | inconclusive [inhibitor, partial curve] | – |
| CCc1cccc2c(C(=O)COC(=O)/C=C/c3ccc(O)c(OC)c3)c[nH]c12 | active: 18.4 µM | – |
| O=C(NC(=S)Nc1ccccn1)c1ccc(-c2ccccc2)cc1 | active: 18.4 µM | – |
| O=Cc1ccc(Cl)cc1 | inactive | – |
| Brc1ccc(Oc2ncc(CN3CCN(c4ccccc4)CC3)s2)cc1 | – | inconclusive: -31.6% [inhibitor] |
| CN(/N=C\c1ccc(O)c(O)c1)c1nc(-c2ccccc2)cc(-c2ccccc2)n1 | active: 1.46 µM | – |
| Cc1nn(Cc2ccccc2Cl)c(C)c1NC(=O)C1C2CCC(O2)C1C(=O)O (stereo not drawn) | – | inconclusive: -33.7% [inhibitor] |

| Compound | Potency | activity change, negative = growth inhibition |
| --- | --- | --- |
| Cc1ccc(-n2ncc(C(=O)NCc3cccs3)c2C2CCN(C(=O)OC(C)(C)C)CC2)cc1C | active: 16.4 µM | – |
| Cc1ccc(S(=O)(=O)N2CCCN(S(=O)(=O)c3ccc4ccccc4c3)CC2)cc1 | inconclusive [inhibitor, single point] | – |
| CC(C)(O)CC[C@H](OC(=O)c1ccccc1)[C@](C)(O)[C@H]1CC[C@@]2(O)C3=CC(=O)[C@@H]4C[C@@H](O)[C@H](O)C[C@]4(C)C3CC[C@]12C (stereo partly drawn) | inactive | – |
| Cc1ccc(NC(=O)CCNS(=O)(=O)c2ccc3c(c2)CCC(=O)N3)c(Br)c1 | inactive | – |
| CCC(Cn1nnc2ccccc2c1=O)NC(=O)Nc1cc(Cl)ccc1OC (stereo not drawn) | inconclusive [inhibitor, single point] | – |
| Cc1ccc2[nH]c(CSc3nnc(NC(=O)COc4ccccc4F)s3)cc(=O)c2c1 | inconclusive [inhibitor, single point] | – |
| COc1ccc(Sc2nnc(Cc3ccccc3)c3ccccc23)cc1 | inconclusive [inhibitor, single point] | – |
| COc1ccc(N2CCN(c3cc(C)c4ccccc4n3)CC2)cc1 | inconclusive [inhibitor, partial curve] | – |
| Cc1cccc(Cn2c(CNS(=O)(=O)c3ccc(Cl)s3)nc3cccnc32)c1 | inconclusive [inhibitor, single point] | – |
| Cc1ccc(C)c(OCCOCCn2c(-c3ccc(Br)cc3)nc3ccccc3c2=O)c1C | inactive | – |
| Cn1c(=O)oc2cc(S(=O)(=O)NCCC(=O)Nc3ccc(F)c(Cl)c3)ccc21 | inconclusive [inhibitor, partial curve] | – |
| COc1ccc(/C=N/NC2=NS(=O)(=O)c3ccccc32)cc1OC(C)=O | inactive | – |
| OC(c1ccccc1)c1nc(-c2cccs2)cs1 (stereo not drawn) | inactive | – |
| CC(=NO)C1CCC2C3CCC4=CC(=NO)CCC4(C)C3C(O)CC12C (stereo not drawn) | active: 16.4 µM | – |
| COc1ccc(CCc2nnc(CCC(=O)N(C)Cc3ccncc3C)o2)cc1 | inactive | – |
| O=C(NCC(=O)N1CCCC1)NN=Cc1ccccc1O | inconclusive [inhibitor, single point] | – |
| COc1ccc(Cn2c(=S)[nH]c3cc(C(=O)N4CCN(c5ccccc5)CC4)ccc3c2=O)cc1 | inconclusive [inhibitor, single point] | – |
| Cn1c(NCc2cccc(Br)c2)nc2ccccc21 | inconclusive [inhibitor, single point] | – |
| CC(=O)N1CCCc2cc(S(=O)(=O)N(C)CC(=O)Nc3ccc(F)c(Cl)c3)ccc21 | active: 20.6 µM | – |
| Cc1noc(C)c1C(=O)N1CCC[C@@]2(CCN(c3ncccn3)C2)C1 | inactive | – |
| Cc1ccc(Nc2ncc(C(=O)NCCCN3CCN(C)CC3)c3ccccc23)cc1Cl | inconclusive [inhibitor, single point] | – |
| CC1CCCCN1C(=O)CSc1nnc(-c2cccc(Cl)c2)o1 (stereo not drawn) | inconclusive [inhibitor, single point] | – |
